Reference: the supplement of paper PMC10037445
Values joined by “and” are separate entries in the source; they are usually repeats but may differ in a detail not shown here. Identical values can stand only once. Over roughly 2,900 compounds, “IRF Lucia reporter activity, fold change vs agonist alone” has its median near 0.9; the highest 2% begin near 2.8. This is one part of the list.

Columns and labels:
[1] = system: RAW-Dual; assay: IRF Lucia reporter activity, fold change vs agonist alone; cytotoxicity flag (confluency mask): not cytotoxic; higher = enhanced IRF activity
In short: (§1)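 RAW-Dual macrophages were seeded in DMEM at 50,000 cells/well in 384-well plates, given 50 nL of library stock by pin tool, and given a PRR agonist 1 h later. Plates were held at 37 °C, 5% CO2 for 20 hours, after which supernatant was read for IRF by QuantiLuc luminescence and for NF-κB by QuantiBlue absorbance at 620 nm. Reporter activity is expressed as fold change over wells that received agonist alone. A well was called cytotoxic when IncuCyte confluency fell below 70% of agonist controls in both mask sets.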

[2] = system: RAW-Dual; assay: IRF Lucia reporter activity, fold change vs agonist alone; higher = enhanced IRF activity; conditions: agonist: MPLA (TLR4) […]
In short: as §1

[3] = system: RAW-Dual; assay: IRF Lucia reporter activity, fold change vs agonist alone; cytotoxicity flag (confluency mask): cytotoxic (confluency <70% of control); higher = enhanced IRF activity
In short: as §1

[4] = agonist: 3'3'-cGAMP (STING) 10 ug/mL
[5] = library stock concentration (final ~1000-fold dilution): 10 mM, cytotoxicity flag (confluency mask): not cytotoxic

Compound: O=C1c2ccc(Nc3ccc(F)cc3F)cc2CCc2ccc(OCC(O)CO)cc21 (stereo unspecified) (library stock concentration (final ~1000-fold dilution): 10 mM)
- IRF Lucia reporter activity [1, 4]: 0.33
- IRF Lucia reporter activity ([1]; agonist: LPS (TLR4) 0.1 ug/mL): 1.08

Compound: O=C1c2ccc(Nc3ccc(F)cc3F)cc2CCc2ccc(OCC(O)CO)cc21 (stereo unspecified)
- IRF Lucia reporter activity [2, 5]: 1.7

Compound: CN(C)CCOC(c1ccc(Cl)cc1)c1ccccn1.O=C(O)/C=C\C(=O)O (stereo unspecified) (library stock concentration (final ~1000-fold dilution): 10 mM)
- IRF Lucia reporter activity [1, 4]: 0.901
- IRF Lucia reporter activity ([1]; agonist: LPS (TLR4) 0.1 ug/mL): 1.28

Compound: CN(C)CCOC(c1ccc(Cl)cc1)c1ccccn1.O=C(O)/C=C\C(=O)O (stereo unspecified)
- IRF Lucia reporter activity [2, 5]: 0.953

Compound: O=C(Nc1ncc([N+](=O)[O-])s1)c1ccccc1O
- IRF Lucia reporter activity [2, 5]: 1.03

Compound: O=C(Nc1ncc([N+](=O)[O-])s1)c1ccccc1O (library stock concentration (final ~1000-fold dilution): 10 mM)
- IRF Lucia reporter activity [1, 4]: 0.685
- IRF Lucia reporter activity ([1]; agonist: LPS (TLR4) 0.1 ug/mL): 0.856

Compound: CN(CCN1CCC(OC(=O)Nc2ccccc2-c2ccccc2)CC1)C(=O)c1ccc(CN2CCC(C(N)=O)CC2)cc1 (library stock concentration (final ~1000-fold dilution): 10 mM)
- IRF Lucia reporter activity [1, 4]: 0.986
- IRF Lucia reporter activity ([1]; agonist: LPS (TLR4) 0.1 ug/mL): 0.829

Compound: CN(CCN1CCC(OC(=O)Nc2ccccc2-c2ccccc2)CC1)C(=O)c1ccc(CN2CCC(C(N)=O)CC2)cc1
- IRF Lucia reporter activity [2, 5]: 0.867

Compound: C=CCN1CCCC1CNC(=O)c1cc2nn[nH]c2cc1OC.Cl (stereo unspecified)
- IRF Lucia reporter activity [2, 5]: 1.15

Compound: C=CCN1CCCC1CNC(=O)c1cc2nn[nH]c2cc1OC.Cl (stereo unspecified) (library stock concentration (final ~1000-fold dilution): 10 mM)
- IRF Lucia reporter activity [1, 4]: 1.09
- IRF Lucia reporter activity ([1]; agonist: LPS (TLR4) 0.1 ug/mL): 1.19

Compound: O=C(Nc1cc(C(F)(F)F)ccc1C(F)(F)F)c1cc(Br)ccc1O (library stock concentration (final ~1000-fold dilution): 10 mM)
- IRF Lucia reporter activity [3, 4]: 0.0368
- IRF Lucia reporter activity ([3]; agonist: LPS (TLR4) 0.1 ug/mL): 4.46

Compound: CCCCNNC(=O)c1ccc(Br)cc1 (library stock concentration (final ~1000-fold dilution): 10 mM)
- IRF Lucia reporter activity [1, 4]: 0.408
- IRF Lucia reporter activity ([1]; agonist: LPS (TLR4) 0.1 ug/mL): 0.355

Compound: CCCCNNC(=O)c1ccc(Br)cc1
- IRF Lucia reporter activity [2, 5]: 0.401

Compound: CNc1nc(Nc2cnn(C3CCN(C4COC4)CC3F)c2Cl)ncc1C(F)(F)F (stereo unspecified) (library stock concentration (final ~1000-fold dilution): 10 mM)
- IRF Lucia reporter activity [1, 4]: 0.386
- IRF Lucia reporter activity ([1]; agonist: LPS (TLR4) 0.1 ug/mL): 0.0478

Compound: CNc1nc(Nc2cnn(C3CCN(C4COC4)CC3F)c2Cl)ncc1C(F)(F)F (stereo unspecified)
- IRF Lucia reporter activity [2, 5]: 0.229

Compound: CCOC(=O)C(CCc1ccccc1)NC(C)C(=O)N1C(C(=O)O)CC2CCCC21 (stereo unspecified)
- IRF Lucia reporter activity [2, 5]: 0.729

Compound: CCOC(=O)C(CCc1ccccc1)NC(C)C(=O)N1C(C(=O)O)CC2CCCC21 (stereo unspecified) (library stock concentration (final ~1000-fold dilution): 10 mM)
- IRF Lucia reporter activity [1, 4]: 0.976
- IRF Lucia reporter activity ([1]; agonist: LPS (TLR4) 0.1 ug/mL): 1.01

Compound: Nc1ccc(S(=O)(=O)c2ccc(N)cc2)cc1 (library stock concentration (final ~1000-fold dilution): 10 mM)
- IRF Lucia reporter activity [1, 4]: 0.961
- IRF Lucia reporter activity ([1]; agonist: LPS (TLR4) 0.1 ug/mL): 0.883

Compound: O=C(c1ccc(C(=O)N2CCC(N3CCCC3)CC2)c(Nc2ccccc2)c1)N1CCC(N2CCCC2)CC1
- IRF Lucia reporter activity [2, 5]: 0.954

Compound: O=C(c1ccc(C(=O)N2CCC(N3CCCC3)CC2)c(Nc2ccccc2)c1)N1CCC(N2CCCC2)CC1 (library stock concentration (final ~1000-fold dilution): 10 mM)
- IRF Lucia reporter activity [1, 4]: 1.06
- IRF Lucia reporter activity ([1]; agonist: LPS (TLR4) 0.1 ug/mL): 0.99

Compound: N#CCC1(n2cc(-c3ncnc4[nH]ccc34)cn2)CN(C2CCN(C(=O)c3ccnc(C(F)(F)F)c3F)CC2)C1 (library stock concentration (final ~1000-fold dilution): 10 mM)
- IRF Lucia reporter activity [1, 4]: 0.457
- IRF Lucia reporter activity ([1]; agonist: LPS (TLR4) 0.1 ug/mL): 0.842

Compound: OCCN1CCN(CCCN2c3ccccc3Sc3ccc(Cl)cc32)CC1 (library stock concentration (final ~1000-fold dilution): 10 mM)
- IRF Lucia reporter activity [3, 4]: 0.511
- IRF Lucia reporter activity ([3]; agonist: LPS (TLR4) 0.1 ug/mL): 0.793

Compound: OCCN1CCN(CCCN2c3ccccc3Sc3ccc(Cl)cc32)CC1
- IRF Lucia reporter activity ([2]; library stock concentration (final ~1000-fold dilution): 10 mM, cytotoxicity flag (confluency mask): cytotoxic (confluency <70% of control)): 1.48

Compound: COc1ccc(CCC(=O)N(c2nccc3ccccc23)C2CCCNC2)cc1 (stereo unspecified) (library stock concentration (final ~1000-fold dilution): 10 mM)
- IRF Lucia reporter activity [1, 4]: 0.302
- IRF Lucia reporter activity ([1]; agonist: LPS (TLR4) 0.1 ug/mL): 1.26

Compound: CC(C)CN(CC(O)C(Cc1ccccc1)NC(=O)OC1COC2OCCC12)S(=O)(=O)c1ccc(N)cc1.CCO (stereo unspecified)
- IRF Lucia reporter activity [2, 5]: 1.12

Compound: CC(C)CN(CC(O)C(Cc1ccccc1)NC(=O)OC1COC2OCCC12)S(=O)(=O)c1ccc(N)cc1.CCO (stereo unspecified) (library stock concentration (final ~1000-fold dilution): 10 mM)
- IRF Lucia reporter activity [1, 4]: 1.05
- IRF Lucia reporter activity ([1]; agonist: LPS (TLR4) 0.1 ug/mL): 0.964

Compound: CCCCS(=O)c1sc2nc(-c3cccs3)cc(-c3ccccc3)c2c1N (stereo unspecified) (library stock concentration (final ~1000-fold dilution): 10 mM)
- IRF Lucia reporter activity [1, 4]: 0.181
- IRF Lucia reporter activity ([1]; agonist: LPS (TLR4) 0.1 ug/mL): 0.663

Compound: Nc1nc2[nH]cc(CCc3ccc(C(=O)NC(CCC(=O)O)C(=O)O)cc3)c2c(=O)[nH]1 (stereo unspecified)
- IRF Lucia reporter activity ([2]; library stock concentration (final ~1000-fold dilution): 10 mM water, cytotoxicity flag (confluency mask): not cytotoxic): 1.12

Compound: Nc1nc2[nH]cc(CCc3ccc(C(=O)NC(CCC(=O)O)C(=O)O)cc3)c2c(=O)[nH]1 (stereo unspecified) (library stock concentration (final ~1000-fold dilution): 10 mM water)
- IRF Lucia reporter activity [1, 4]: 1.15 and 0.82
- IRF Lucia reporter activity ([1]; agonist: LPS (TLR4) 0.1 ug/mL): 0.998 and 0.771
